Our source for the survival values is PubChem BioAssay AID463173 (ICCB-Longwood Screening Facility, Harvard Medical School, 2010).

Screen size: about 52,000 compounds; about 4,300 (8.3%) were called active. No stated cut-off is given here; in the data, active means survival mostly below about 52% (no sharp cut-off); inactive means mostly above about 56%. The list shows a part of the results.

This experiment concerns DeltatarO mutant. As to the kind of experiment: S. aureus survival, RN4220 and DeltatarO strains – OD600, teichoic acid synthesis inhibitors, primary screen (AID 463173). The following applies: S. aureus RN4220 wild type/DeltatarO growth, OD600, 18 h, hits give low values, screened at 18.75 µg/mL (by protocol).
For `CCOCCCn1c(=N)c(C(=O)NC2CCCC2)cc2c(=O)n3cc(C)ccc3nc21`, the survival is inactive: 84%.
Regarding `O=c1ccc2nc3ccccc3c(=O)n2[nH]1`, the survival was inactive: 85%.
Consider `COc1ccccc1Cc1nc2ccccc2nc1SCC(=O)Nc1cc(Cl)ccc1OC`, for which the survival is inactive: 73%.
The same measure for `Cc1cc(C)cc(NC(=O)Nc2nnc(N(C)C3CCCCC3)s2)c1`: inactive: 105%; for `COc1ccccc1-c1noc(CCCC(=O)NCc2ccco2)n1`: inactive: 54%.
On to `COc1ccc2sc(N(Cc3cccnc3)C(=O)COc3ccccc3)nc2c1`, for which the survival was inactive: 64%.
The same measure for `CCOc1ccc(CCNc2nc3ccccc3n3c(C)nnc23)cc1OCC`: inactive: 107%.
The same measure for `COc1cc(NC(=O)Cn2c(=O)n(CC3CCCO3)c(=O)c3ccccc32)cc(OC)c1` (stereo not given): inactive: 103%; for `C=CCn1c(/N=C/c2ccc3c(c2)OCO3)nc2ccccc21`: inactive: 68%; for `O=C(Nc1cccc(C(F)(F)F)c1)c1cc2nc(-c3ccc4c(c3)OCO4)cc(C(F)(F)F)n2n1`: inactive: 88%.
For `Cc1ccc(-c2nc(CSc3nncn4c3cc3occc34)c(C)o2)cc1`, the survival was inactive: 67%.
`NCCc1nc2cccnc2n1-c1ccccc1`: the survival was inactive: 85%.
With `C=CCC(c1ccccc1)N(C(C)=O)c1ccco1` (stereo not given), the survival is inactive: 75%.
For `CCc1ccccc1NC(=O)c1nnn(Cc2ccc(Cl)cc2)c1N`, the survival was inactive: 77%.
With `CCOC(=O)c1c(S(=O)(=O)N2CCC(C(=O)Nc3ccc(C)cc3C)CC2)c(C)n(C)c1C` the figure was inactive: 88%; with `N#Cc1nc(-c2ccccc2)oc1NCCCn1ccnc1`, inactive: 93%; with `Cc1cc(C)cc(NC(=O)c2cnc3sc(N4CCCC4)nn3c2=O)c1`, inactive: 90%.
With `COCCNC(=O)CSc1nc(-c2ccccc2)[nH]c1-c1ccc(OC)cc1`, the survival is inactive: 80%.
Regarding `Cc1cc(CN2CCN(c3cccc(C)c3C)CC2)cs1`, the survival was inactive: 76%.
As to `CCOC(=O)C1=C(CN2CCN(c3ccc(OC)cc3)CC2)NC(=O)NC1c1ccc(Cl)cc1` (stereo not given), the survival is inactive: 76%.
The same measure for `COc1cccc(-n2c(SCC(=O)Nc3nnc(C)s3)nc3c([nH]c4ccccc43)c2=O)c1`: inactive: 60%; for `Fc1ccc2[nH]c(-c3cccs3)cc2c1`: inactive: 54%.
On to `CC(C)Cn1c(=O)c2sccc2n2c(CCCC(=O)N3CCN(c4ccc(F)cc4)CC3)nnc12`, for which the survival is inactive: 97%.
As to `O=C(NCc1ccccc1Cl)c1ccc2c(c1)N(Cc1ccccc1)C(=O)CS2`, the survival was inactive: 101%.
As for `CC1CCN(S(=O)(=O)c2ccc3c(c2)c(=O)c(C(=O)NC(C)c2ccccc2)cn3C)CC1` (stereo not given), the survival is inactive: 68%.
With `CN(CC(=O)Nc1ccccc1F)S(=O)(=O)c1ccc2c(c1)c(=O)n(C)c(=O)n2C` the figure was inactive: 134%; with `COc1ccc(CCC(=O)NCc2nc3cccnc3n2Cc2ccc(F)cc2)cc1`, inactive: 119%; with `Cc1ccc(Cl)cc1N1CCN(C(=O)c2ccc3c(c2)CCN3S(=O)(=O)c2ccccc2)CC1`, inactive: 48%.
For the molecule `Cc1ccc(-c2nnc(Nc3cccc(O)c3)c3ccccc23)cc1S(=O)(=O)NCC1CCCO1` (stereo not given), the survival was inactive: 74%.
With `CCSC1=C(C#N)C2(CCCCC2)C(C#N)=C(N)N1` the figure was inactive: 68%; with `O=c1c2ccccc2nc2n1CCN2`, inactive: 123%.
As to `CCOC(=O)N1CCC(NC(=O)c2cnn(-c3cccc(F)c3)c2-n2cccc2)CC1`, the survival is inactive: 95%.
On to `Cc1c(Cl)cccc1NC(=O)C1CCCN(c2ncnc3onc(C)c23)C1` (stereo not given), for which the survival is inactive: 67%.
For `CC(=O)c1cccc(NC(=O)C(CC(C)C)NS(=O)(=O)c2ccc3c(c2)CCN3C(C)=O)c1` (stereo not given), the survival is inactive: 115%.
For `CCN(CC)S(=O)(=O)c1cccc2nsnc12`, the survival was inactive: 79%.
Take `CCOC(=O)CN(Cc1ccccc1)C(C(=O)NC1CCCCC1)c1ccc(OC)cc1` (stereo not given): the survival is active: 20%.
Take `CCOc1cc(C(=O)Nc2cccc3cccnc23)cc(OCC)c1OCC`: the survival was active: 10%.
With `COc1ccc(Cl)cc1NC(=O)c1ccc2c(c1)CCN2S(C)(=O)=O` the figure was inactive: 81%; with `COc1cccc(Nc2sc(C(=O)c3ccc(Cl)cc3)c(N)c2C(=O)NCc2ccc(C)cc2)c1`, inactive: 95%.
The same measure for `O=C(NCCc1ccccc1)c1ccc2c(c1)N(Cc1ccccc1)C(=O)c1ccccc1S2(=O)=O`: inactive: 61%; for `CCc1ccc(N2CCN(S(=O)(=O)N(C)C)CC2)cc1`: inactive: 64%.
Consider `O=C(NCCc1ccccc1)C1CCN(Cc2cc3ccccc3n2Cc2cccc(Cl)c2)CC1`, for which the survival is inactive: 93%.
With `COc1ccc(CNC(=O)c2cc(=O)[nH]c3ccc(S(=O)(=O)N4CCCC4)cc23)c(OC)c1` the figure was inactive: 76%; with `CC(=O)c1cccc(Nc2cc(C)nc3nc(Cc4ccccc4)nn23)c1`, inactive: 62%.
As to `COc1ccc(NC(=O)c2c(C)oc3ccc(O)c(CN4CCN(Cc5ccccc5)CC4)c23)cc1Cl`, the survival was inactive: 61%.
In the case of `Cc1ccc(Nc2nc3ccccc3c3nnc(C)n23)c(C)c1`, the survival was inactive: 70%.
For the molecule `COc1ccc(-c2cc3nc(C)c(CCC(=O)N4CCN(c5ccc(F)cc5)CC4)c(C)n3n2)c(OC)c1`, the survival is inactive: 78%.
With `Cc1ccccc1C(=O)OCc1cc(=O)n2nc(C(C)C)sc2n1` the figure was inactive: 81%.
With `COc1cc(OC)c(N(C)C(=O)c2cn(C3CCCC3)c(=O)c3c2c2ccccc2n3C)cc1Cl` the figure was inactive: 79%.
For `COc1ccc(-n2nc(C(=O)O)c(=O)n(C)c2=O)cc1`, the survival is inactive: 61%.
With `Cc1ccc(N2CCN(C(=O)c3cnn(-c4ccc(F)cc4F)c3C3CCN(C(=O)OC(C)(C)C)CC3)CC2)c(C)c1` the figure was inactive: 91%.
For `CN(Cc1ccccc1)S(=O)(=O)c1ccc2[nH]c3c(c2c1)CCCCC3`, the survival is inactive: 67%.
As to `CCN1CCN(C(c2ccc(C)cc2)c2c(O)cc(C)n(Cc3ccco3)c2=O)CC1` (stereo not given), the survival is inactive: 69%.
For the molecule `CCOC(=O)c1c(C)n(-c2ccccc2)c2ccc(OC(=O)c3cccc(C)c3)cc12`, the survival is inactive: 63%.
Turning to `CC(=O)c1cccc(NC(=O)Nc2nnc(N3CCCC3)s2)c1`, the survival was inactive: 104%.
Regarding `Cc1oc2ncn(C)c(=O)c2c1C(=O)NCCCN1CCCCC1C` (stereo not given), the survival was inactive: 86%.
Consider `CCCOc1ccc(CNC(=O)c2ccc(C)c(-n3c(C)nc4cccnc43)c2)cc1`, for which the survival is inactive: 94%.
Consider `COc1ccc(-n2nc(C(=O)Nc3ccc(Cl)cn3)c3c4ccccc4n(C)c3c2=O)cc1`, for which the survival is inactive: 99%.
`Cc1cccc(NC(=O)Cn2nc3c4ccccc4n(Cc4ccccc4)cc-3c2=O)c1`: the survival is inactive: 84%.
The same measure for `O=C(Nc1cccc(C(F)(F)F)c1)N1CC2CCCN2c2ccccc21` (stereo not given): inactive: 61%; for `Cc1cccc(-n2ncc(C(=O)N3CCN(c4ccc(C)cc4C)CC3)c2C2CCN(C(=O)OC(C)(C)C)CC2)c1`: inactive: 86%; for `Cc1ccsc1CN(C(=O)c1oc2ccc(Br)cc2c1C)C1CCS(=O)(=O)C1` (stereo not given): inactive: 70%.
On to `Cc1cn(C)c(CC(=O)NCc2ccccc2)c1C(=O)O`, for which the survival was inactive: 85%.
Turning to `CCOc1ccc(Nc2c(S(=O)(=O)c3ccc(Cl)cc3)cnc3ccc(OCC)cc23)cc1`, the survival was inactive: 66%.
For `CCN1c2ccccc2-c2nc(SCC(=O)NCc3ccc(Cl)cc3)ncc2S1(=O)=O`, the survival is active: 46%.
For the molecule `Cc1ccccc1CNC(=O)c1oc2c(c1C)-c1[nH]ncc1CC2`, the survival was inactive: 80%.
The same measure for `NC(=O)C1CCN(CC(=O)N2N=CCC2c2ccccc2)CC1` (stereo not given): inactive: 90%.
Turning to `Cc1ccccc1Nc1nn2c(=O)c3ccc(C(=O)NCCc4ccc(Cl)cc4)cc3nc2s1`, the survival was inactive: 82%.
On to `Cc1ccc2nc(Cl)c3cc(C(=O)N4CCCCC4C)sc3c2c1` (stereo not given), for which the survival was active: 23%.
Regarding `COc1ccc(Cl)cc1NC(=O)CN1C(=O)C(C)(C)c2cc(S(=O)(=O)N3CCCCC3)ccc21`, the survival was inactive: 70%.
As for `Cc1ccc2c(c1)c1nnc(SCC(=O)N3CCCCC3C)nc1n2C` (stereo not given), the survival is inactive: 83%.
On to `CN(C(=O)c1ccco1)c1ccccc1C(=O)O`, for which the survival is inactive: 108%.
For the molecule `O=C(Cn1c(=O)nc(-c2ccccc2)c2cc(Cl)ccc21)N1CCN(c2ccccc2F)CC1`, the survival was inactive: 94%.
`COc1ccc2c(c1)CC(C(=O)NCCCN1CCN(c3cccc(Cl)c3)CC1)CO2` (stereo not given): the survival is inactive: 73%.
`CCOC(=O)c1sc2ccccc2c1S(=O)(=O)N1CCN(c2cccc(C)c2)C(C)C1` (stereo not given): the survival was inactive: 95%.
For `CCOc1cc(NC(=S)NCCCN2CCOCC2)c(OCC)cc1NC(=O)C1CC1`, the survival is inactive: 94%.
For the molecule `O=C(CC1C(=O)N(c2ccccc2)C(=O)N1CCc1cccs1)Nc1ccc(F)cc1` (stereo not given), the survival was inactive: 63%.
For the molecule `O=C(CCCn1c(=O)c2cccn2c2cccnc21)NCc1ccccc1Br`, the survival is inactive: 130%.
The same measure for `CSc1nc(-c2ccco2)nn1C(=O)c1ccc(C)cc1`: inactive: 65%; for `CSc1ncc(C(=O)N2CCN(c3cccc(Cl)c3)CC2)c(C)n1`: active: 0%; for `CCOc1ccc(CCNC(=O)Cn2nnc(-c3ccccc3Cl)n2)cc1OCC`: inactive: 70%.
As for `Cc1c(C)n(Cc2ccc(F)cc2)c2ccc(C(=O)NCc3ccco3)cc12`, the survival was inactive: 87%.
With `O=C(NCCN1CCN(c2cccc(Cl)c2)CC1)Nc1ccccc1C(F)(F)F` the figure was inactive: 109%; with `O=C(CSc1ncc(-c2ccccc2)[nH]1)Nc1ccc(Cl)cc1`, active: 36%; with `Cc1ccc(CNc2nc(-c3ccco3)nn2S(=O)(=O)c2ccc3ccccc3c2)cc1`, inactive: 115%.
`COc1ccc(OCC(=O)NCCO)cc1`: the survival was inactive: 100%.
On to `CC(C)COc1ccc(C(=O)N2CCCCC2CCN2CCCCC2)cc1` (stereo not given), for which the survival was inactive: 79%.
The same measure for `Cc1cc(NC(=O)CSc2nc(C3CCCCC3)nc3sc(C)c(C)c23)no1`: inactive: 90%.
`Cc1cccc(-c2nnn3c2nc(NCc2ccc4c(c2)OCO4)c2ccccc23)c1`: the survival was inactive: 71%.
Turning to `COc1cccc2c1ncc1c(-c3ccc(C)cc3)nn(-c3ccc(F)cc3)c12`, the survival is inactive: 80%.
